{"source": "a collection of fitness landscapes (doi:10.1126/science.1257360)", "parents": {"B1": {"name": "PhoQ; a variant is named by its letters at X, in order, P23837 (parent)", "chain": "MKKLLRLFFPLSLRVRFLLATAAVVLVLSLAYGMVALIGYSVSFDKTTFRLLRGESNLFYTLAKWENNKLHVELPENIDKQSPTMTLIYDENGQLLWAQRDVPWLMKMIQPDWLKSNGFHEIEADVNDTSLLLSGDHSIQQQLQEVREDDDDAEMTHSVAVNVYPATSRMPKLTIVVVDTIPVELKSSYMVWSWFIYVLSANLLLVIPLLWVAAWWSLRPIEALAKEVRELEEHNRELLNPATTRELTSLVRNLNRLLKSERERYDKYRTTLTDLTHSLKTPLXXLQXXLRSLRSEKMSVSDAEPVMLEQISRISQQIGYYLHRASMRGGTLLSRELHPVAPLLDNLTSALNKVYQRKGVNISLDISPEISFVGEQNDFVEVMGNVLDNACKYCLEFVEISARQTDEHLYIVVEDDGPGIPLSKREVIFDRGQRVDTLRPGQGVGLAVAREITEQYEGKIVAGESMLGGARMEVIFGRQHSAPKDE"}}, "note": "Some of the results follow."}
{"variants_of": "B1", "assay": "enrichment ratio after two sorts for PhoP signalling (ratio (wild type AVST 3.29)); higher = more functional", "settings": "with PhoP (E. coli)"}
{"variant": "NMRP", "enrichment ratio": "≤ 0.25"}
{"variant": "TKPT", "enrichment ratio": "≤ 0.25"}
{"variant": "FSYW", "enrichment ratio": "≤ 0.25"}
{"variant": "ISHC", "enrichment ratio": "≤ 0.25"}
{"variant": "APAK", "enrichment ratio": "≤ 0.25"}
{"variant": "VREN", "enrichment ratio": "≤ 0.25"}
{"variant": "NMSG", "enrichment ratio": "≤ 0.25"}
{"variant": "YDGF", "enrichment ratio": "≤ 0.25"}
{"variant": "PNEK", "enrichment ratio": "≤ 0.25"}
{"variant": "NEFE", "enrichment ratio": "≤ 0.25"}
{"variant": "ETKC", "enrichment ratio": "≤ 0.25"}
{"variant": "AAAH", "enrichment ratio": 3.1}
{"variant": "HLFT", "enrichment ratio": "≤ 0.25"}
{"variant": "FKTA", "enrichment ratio": "≤ 0.25"}
{"variant": "GFQH", "enrichment ratio": "≤ 0.25"}
{"variant": "LECD", "enrichment ratio": "≤ 0.25"}
{"variant": "QAFI", "enrichment ratio": "≤ 0.25"}
{"variant": "YGHY", "enrichment ratio": "≤ 0.25"}
{"variant": "LCNK", "enrichment ratio": "≤ 0.25"}
{"variant": "AMMC", "enrichment ratio": "≤ 0.25"}
{"variant": "KHAQ", "enrichment ratio": "≤ 0.25"}
{"variant": "GGYW", "enrichment ratio": "≤ 0.25"}
{"variant": "IPGY", "enrichment ratio": "≤ 0.25"}
{"variant": "MRMA", "enrichment ratio": "≤ 0.25"}
{"variant": "HDCG", "enrichment ratio": "≤ 0.25"}
{"variant": "HNKE", "enrichment ratio": "≤ 0.25"}
{"variant": "SGWP", "enrichment ratio": "≤ 0.25"}
{"variant": "VSDD", "enrichment ratio": "≤ 0.25"}
{"variant": "HPSK", "enrichment ratio": "≤ 0.25"}
{"variant": "DKHY", "enrichment ratio": "≤ 0.25"}
{"variant": "TYHT", "enrichment ratio": "≤ 0.25"}
{"variant": "PPIM", "enrichment ratio": "≤ 0.25"}
{"variant": "DVQP", "enrichment ratio": "≤ 0.25"}
{"variant": "KTVK", "enrichment ratio": "≤ 0.25"}
{"variant": "YEPW", "enrichment ratio": "≤ 0.25"}
{"variant": "SLTY", "enrichment ratio": 3.17}
{"variant": "DQNM", "enrichment ratio": "≤ 0.25"}
{"variant": "GMNT", "enrichment ratio": "≤ 0.25"}
{"variant": "LACD", "enrichment ratio": "≤ 0.25"}
{"variant": "HKLC", "enrichment ratio": "≤ 0.25"}
{"variant": "DMIH", "enrichment ratio": "≤ 0.25"}
{"variant": "GSWV", "enrichment ratio": "≤ 0.25"}
{"variant": "VCAR", "enrichment ratio": "≤ 0.25"}
{"variant": "PHPN", "enrichment ratio": "≤ 0.25"}
{"variant": "PYED", "enrichment ratio": "≤ 0.25"}
{"variant": "FYAQ", "enrichment ratio": "≤ 0.25"}
{"variant": "WAVK", "enrichment ratio": "≤ 0.25"}
{"variant": "FRRR", "enrichment ratio": "≤ 0.25"}
{"variant": "TGAW", "enrichment ratio": "≤ 0.25"}
{"variant": "QPKW", "enrichment ratio": "≤ 0.25"}
{"variant": "KWHR", "enrichment ratio": "≤ 0.25"}
{"variant": "TQWL", "enrichment ratio": 7.95}
{"variant": "AGFY", "enrichment ratio": "≤ 0.25"}
{"variant": "QMIN", "enrichment ratio": "≤ 0.25"}
{"variant": "WYMV", "enrichment ratio": "≤ 0.25"}
{"variant": "FFTF", "enrichment ratio": "≤ 0.25"}
{"variant": "TLET", "enrichment ratio": "≤ 0.25"}
{"variant": "ANKA", "enrichment ratio": "≤ 0.25"}
{"variant": "VQEE", "enrichment ratio": "≤ 0.25"}
{"variant": "VVAI", "enrichment ratio": "≤ 0.25"}
{"variant": "NTRE", "enrichment ratio": "≤ 0.25"}
{"variant": "TKYA", "enrichment ratio": "≤ 0.25"}
{"variant": "YMFV", "enrichment ratio": "≤ 0.25"}
{"variant": "NIKS", "enrichment ratio": "≤ 0.25"}
{"variant": "EVHQ", "enrichment ratio": "≤ 0.25"}
{"variant": "FDKE", "enrichment ratio": "≤ 0.25"}
{"variant": "HPLE", "enrichment ratio": "≤ 0.25"}
{"variant": "GLVC", "enrichment ratio": 2.33}
{"variant": "VPRH", "enrichment ratio": "≤ 0.25"}
{"variant": "HFTT", "enrichment ratio": "≤ 0.25"}
{"variant": "VNKV", "enrichment ratio": "≤ 0.25"}
{"variant": "LCRC", "enrichment ratio": "≤ 0.25"}
{"variant": "DSTH", "enrichment ratio": "≤ 0.25"}
{"variant": "YGER", "enrichment ratio": "≤ 0.25"}
{"variant": "RGTY", "enrichment ratio": "≤ 0.25"}
{"variant": "FEHR", "enrichment ratio": "≤ 0.25"}
{"variant": "ANAG", "enrichment ratio": 0.473}
{"variant": "DKPV", "enrichment ratio": "≤ 0.25"}
{"variant": "FVSQ", "enrichment ratio": "≤ 0.25"}
{"variant": "NRPM", "enrichment ratio": "≤ 0.25"}
{"variant": "SQQF", "enrichment ratio": "≤ 0.25"}
{"variant": "RLTE", "enrichment ratio": "≤ 0.25"}
{"variant": "VTNI", "enrichment ratio": "≤ 0.25"}
{"variant": "DNNC", "enrichment ratio": "≤ 0.25"}
